Reference: PubChem BioAssay AID1508623 (National Center for Advancing Translational Sciences (NCATS), 2021)
Out of some 48,000 compounds screened, about 450 (0.94%) were called active. About 19% were inconclusive and are not listed. Calls come from the whole dose curve; as a rule, active = well fitted inhibition curve with a large enough effect; inconclusive = small, poorly fitted or top-dose-only effect; inactive = no such curve, though single readings can be large or run the other way. The list shows a part of the results.

assay: Primary qHTS for Identification of Small Molecule Inhibitors of Huntingtin Promoter Activity; settings: HEK293 HTT promoter firefly luciferase reporter (activity 0% = vehicle and -100% = no light), 24 h; series mostly up to 57.5 µM; activity change, negative = inhibition: at the top concentration; note: nearly all actives have a fitted effect of over 50% in size
Method in brief: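 HEK293 Fluc reporter, 2,500 cells/well, 24 h pre-culture; cpds up to 57.5 uM final, 24 h 37 degrees C; Dual-Glo, 10 min RT; normalized vehicle = 0%, zero RLU = -100%.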

Activity change, negative = inhibition, inactive:
Cc1cc(C)cc(NC(=O)Cn2c(C(F)(F)F)nc3ccccc32)c1 -19.8%
Cc1ccccc1NC(=O)CSc1nnc(-c2cccs2)o1 -17.9% [at 11.5 µM]
CCOC(=O)O[C@]1(C(=O)OCCl)CC[C@@H]2[C@H]3CCC4=CC(=O)C=C[C@]4(C)[C@@H]3[C@@H](O)C[C@@]21C 36.1%
COc1ccccc1NC(=O)CSC1=Nc2ccccc2C2=NC(CC(=O)NCc3cccs3)C(=O)N12 (stereo not drawn) -25.6%
Nc1c(CC(=O)O)cccc1C(=O)c1ccc(Br)cc1 16.8%
COc1ccc(CNC(=O)c2cnc(N3CCOCC3)c3ccccc23)cc1 -16.1%
N#Cc1ccccc1NC(=O)CSc1nnc(N)s1 -12.8%
CCc1ccc2oc(-c3cc(NC(=O)c4cc([N+](=O)[O-])ccc4N4CCOCC4)ccc3Cl)nc2c1 10.6%
Fc1ccc(-c2cn3cc(Cc4ccccc4)sc3n2)cc1 -26.4%
CCCN(CCC)C(=O)Cn1c(=O)n(-c2ccc(Cl)cc2)c(=O)c2c3c(sc21)CCCC3 -10.2%
COc1ccc(-n2ncc(C(=O)N3CCOCC3)c2C2CCN(C(=O)OC(C)(C)C)CC2)cc1 11.5%
Cn1c(=O)c2sccc2n2c(CCCC(=O)NCc3ccccc3)nnc12 -5.09%
C[C@@H]1CC[C@@]2(OC1)O[C@H]1C[C@H]3[C@@H]4CC[C@H]5C[C@@H](O)CC[C@]5(C)[C@H]4CC(=O)[C@]3(C)[C@H]1[C@@H]2C 1.48% [at 6.01 µM]
O=C1COc2ccc(-c3cc(-c4ccccc4)c4c(n3)-c3cc(Cl)ccc3OC4)cc2N1 -11.9%
CCN(C(=O)c1cn(CC)c(=O)c2cc(OC)c(OC)cc12)c1ccc(C)c(C)c1 -22.6%
Cc1ccc(N2CCN(S(=O)(=O)c3ccc4[nH]c5c(c4c3)CCCCC5)CC2)c(C)c1 -33.1%
CC1CCc2c(sc3nnn(CC(=O)Nc4ccc(Cl)cc4)c(=O)c23)C1 (stereo not drawn) -23%
O=C(Nc1cccc(F)c1F)C1CCN(c2ncccn2)CC1 -3.37%
COc1cccc(-n2nnc(-c3nc(-c4ccccc4F)no3)c2C)c1 66.9%
O=C(Nc1ccc(F)cc1)N1CCN(C(=O)c2nsc3ccccc23)CC1 -6.62%
COC(=O)c1cc2occc2n1CC(=O)Nc1ccc(C(C)C)cc1 -11.7%
COc1ccc(-c2nc3c(c(SCC(=O)N4CCCCC4)n2)Cc2c(CO)cnc(C)c2O3)cc1 -5.46%
CSc1cccc(NC(=O)Cn2ncn3c(cc4ccccc43)c2=O)c1 -2.85%
Cc1cccc(N2CCN(C(c3ccccc3)c3nnc(-c4ccccc4Cl)o3)CC2)c1C (stereo not drawn) -20.7%
CCOc1ccccc1NC(=O)C(c1ccccc1)N1Cc2ccccc2C1=O (stereo not drawn) -3.37%
COc1cccc(-c2nc(SCc3cc(=O)c4ccc(C)c(C)c4[nH]3)n[nH]2)c1 -23.8%
CCOc1ccc(NC(=O)Cn2cc(C(=O)c3ccc(CC)cc3)c(=O)c3cc(C)ccc32)cc1 -15.4%
COc1ccc(NC(=O)c2csc3c2CCCCC3)cc1 19.9%
CCCN(C(=O)c1nn(-c2ccc(OC)cc2)c(=O)c2c1c1ccccc1n2C)c1ccc(CC)cc1 -21.1%
O=C(CSc1nc2c([nH]c3ccccc32)c(=O)n1-c1ccc(F)cc1)NCc1ccccc1 -24.4%
CCOCCCn1c(SCC(=O)Nc2ccc(C(C)C)cc2)nc2c(sc3ccccc32)c1=O -18.5%
C[C@]12C=CC(=O)C=C1CC[C@H]1[C@@H]3C[C@@H](O)[C@](O)(C(=O)CO)[C@@]3(C)C[C@H](O)[C@@]12F 7.26%
Cn1c(=O)c2c(-c3ccccc3)n3c4ccccc4nc(-c4ccccc4)c3c2n(C)c1=O -4.35%
COC(=O)c1cc2occc2n1Cc1nc(-c2ccccc2F)oc1C 15.6%
COc1ccc(C(=O)NCC(c2cccnc2)N2CCc3ccccc3C2)cc1OC (stereo not drawn) -18.6%
CCn1c(=O)c2cc(C(=O)Nc3cc(F)ccc3F)sc2c2ccccc21 4.25%
O=C(Nc1cccc(-c2nc3cc(Cl)ccc3o2)c1)c1cc([N+](=O)[O-])ccc1N1CCOCC1 -2.28%
COc1ccc(CN2C(=O)c3oc4ccccc4c(=O)c3C2c2ccc(O)cc2)cc1 (stereo not drawn) -4.34%
O=C(Cn1cnc2c(oc3ccccc32)c1=O)Nc1ccccc1C(F)(F)F -7.6%
Cc1ccc(-c2nnc(Nc3cccc(Cl)c3)c3ccccc23)cc1S(=O)(=O)N1CCOCC1 22.1%
COc1ccccc1NC(=O)Cn1c(=O)n(Cc2ccccc2)c(=O)c2sc3ccccc3c21 -9.69%
COc1ccc(C)cc1NC(=O)N(Cc1ccc(C)o1)C1CCN(C(C)=O)CC1 -8.67%
CC(C(C)N1CC(=O)NC(=O)C1)N1CC(=O)NC(=O)C1 (stereo not drawn) -16.5%
Cc1cc(C)c(NC(=O)CSc2nc3ccccc3nc2N2CCCCC2)c(C)c1 -11.5%
CCC(C(=O)Nc1cccc(Cl)c1C)n1nc(-c2ccc(C)cc2)ccc1=O (stereo not drawn) -29.6%
CC(C)COc1cccc(C(=O)Nc2ccc(-c3nc4ncccc4o3)cc2)c1 -13.3% [at 11.5 µM]
CCCc1nc2sc3c(N4CCC(C)CC4)ncnc3c2c2c1CCCC2 -5.49%
O=C(NCc1cccc(Cl)c1)c1cc2ccc3cccnc3c2[nH]1 13.3%
CC(C)COc1ccc(C(=O)Nc2ccc(S(=O)(=O)Nc3ncccn3)cc2)cc1 -9.44%
CCC(=O)Nc1cc(C)c(O)c(-c2nc3ncccc3o2)c1 -3.16%
CC1CCN(C(=O)Cn2cc(SCC(=O)NCc3ccccc3Cl)c3ccccc32)CC1 -30.6%
Cc1cccc(N2CCN(S(=O)(=O)c3ccc4c(c3)CCCN4C(=O)C3CCC3)CC2C)c1 (stereo not drawn) -22.9%
COc1ccc(Cn2c(=O)[nH]c3cc(C(=O)N4CCN(c5cccc(Cl)c5)CC4)ccc3c2=O)cc1 -11.1%
Cn1c(=O)n(-c2ccc(Br)cc2F)c(=O)c2sc3ccccc3c21 -9.34%
COc1cc2c(=O)c(S(=O)(=O)c3ccc(F)cc3)cn(Cc3ccc(Cl)cc3)c2cc1OC -7.34%
O=C(NC1CCCCCC1)c1ccc2c(c1)sc1nc(-c3ccc(F)cc3)cn12 -0.069%
O=C(Nc1ccc(C(=O)OCc2cc(=O)n3c4c(sc3n2)CCCC4)cc1)c1ccccc1 -9.78%
CC1(C)O[C@@H]2C[C@H]3[C@@H]4CCC5=CC(=O)CC[C@]5(C)[C@@]4(F)[C@@H](O)C[C@]3(C)[C@]2(C(=O)CCl)O1 -4.28%
